Data: PubChem BioAssay (NCI)
Where “and” joins values, the source holds several entries; their conditions need not be identical. Equal entries are not always repeated.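 Protocol summary: plate cells (96-well), add compound at 5 concentrations, incubate 48 h, interpolate endpoints linearly. At the GI50, growth is halved. TGI: concentration producing complete growth inhibition.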

Test system: NCI-H322M lung
Test: NCI-60 cell line screen, 48 h

Compound | TGI | GI50
O=C1[C@@H]2C3C=CC([C@H]4C(=O)N(CO)C(=O)[C@@H]34)[C@@H]2C(=O)N1CO | > 100 µM | –
CN(C)CCCNc1ccc2nnn3c4ccc([N+](=O)[O-])cc4c(=O)c1c23 | 4.81 µM | –
CC(C)NC(=O)OCc1c(COC(=O)NC(C)C)c(-c2ccc[n+](COC(=O)C3CCCCC3)c2)n2c1CCC2 | > 100 µM | –
COC(=O)c1c(OC(=O)c2ccccc2)noc1CC(=O)OC1C=CCCC1 (stereo not drawn) | > 100 µM | –
Cc1ccc(S(=O)(=O)c2ccccn2)cc1 | > 100 µM | –
NC(=O)NOCC1NC(=O)NC1=O (stereo not drawn) | > 100 µM | –
O=C(C(=O)n1ccc2ccccc21)c1c[nH]c2ccccc12 | > 10 µM | –
CC1SC(c2cccc(Oc3ccccc3)c2)N(CCc2cccs2)C1=O (stereo not drawn) | 5.06 µM | 1.56 µM
O=S(=O)(CC#CCS(=O)(=O)c1ccccc1)c1ccccc1 | 30.8 µM | –
CN(C)CCCN1c2ccc3ccccc3c2Sc2cccc(Cl)c21 | 16.8 µM | –
Cc1nc2c(=O)n(C)c(=O)nc-2n(-c2ccc(Cl)cc2)c1C | > 100 µM | –
Cn1cc(C2=C(c3cn(CCCSC(=N)N)c4ccccc34)C(=O)NC2=O)c2ccccc21 | 14.7 µM | 3.27 µM
COC[C@H](Cc1ccccc1)N=Cc1ccccc1 | > 100 µM | –
O=C1c2cccc3cc4ccccc4c(c23)C(=O)N1CCCNCCNCCCN1C(=O)c2cccc3cc4ccccc4c(c23)C1=O | 1.62 µM | –
COC(=O)[C@@H](C)C[C@H](Cc1ccccc1)NC(=O)c1cccc([C@@H](C[C@H](C(C)C)N(C)C(=O)[C@@H](NC(=O)[C@H]2CCCCN2C)C(C)C)OC(C)=O)n1 | > 16.7 µM | 0.00581 µM
COc1c(C)cnc(Cn2cnc3c(Cl)nc(N)nc32)c1C | > 100 µM | 0.839 µM
COc1cccc2c1C(=N)c1c(O)c3c(c(O)c1C2=O)C[C@@](O)(C(C)=O)C[C@@H]3OC1CC(N)C(O)C(C)O1 (stereo partly drawn) | 7.18 µM and 16.1 µM and 5.97 µM | –
Cc1cc2c(C#N)n3c(c2cc1C)C(=O)C(c1ccccc1)Oc1ccccc1-3 (stereo not drawn) | > 100 µM | > 100 µM
COc1ccc2nccc(C3OC(=O)N4CCC(=O)CC34)c2c1 (stereo not drawn) | > 100 µM | –
CC1=C2CC3=C(C)C(=O)O[C@H]3C[C@@H](C)[C@@H]2CC1 | > 100 µM | –
COc1cc(OC)cc(N(C)Cc2cnc3nc(N)nc(N)c3c2C)c1 | > 100 µM | –
CC(=O)CC(=O)Nn1c(-c2cccs2)nc2ccc(I)cc2c1=O | > 100 µM | –
COCN1C(=O)[C@@H]2C[C@@H](OC/C=C/CBr)CN2C(=O)c2ccccc21 | 33.2 µM | –
COc1ccc(/C=C(\NC(=O)c2ccccc2)c2nc3ccccc3[nH]2)cc1 | > 100 µM | –
CN(C)CCCn1c2c(c3ccc([N+](=O)[O-])cc3c1=O)C(=O)c1ccccc1-2 | > 100 µM | > 100 µM

Compound | TGI | GI50
Nc1nc(N)c2nn(-c3ccc(C(=O)O)cc3)nc2n1 | > 100 µM | –
O=C(Cl)c1cc([N+](=O)[O-])cc([N+](=O)[O-])c1 | > 100 µM | –
CC(=O)NC1C(=O)CC(c2ccccc2)N(C)C1c1ccccc1 (stereo not drawn) | > 100 µM | –
C[C@H]1C(=O)C2=C[C@H]1CCC(=O)[C@]1(C)CCCC(C)(C)[C@H]1C[C@H]2O | > 100 µM | –
O=C1CSC(c2ccc(Cl)cc2)N1c1ccc(-n2c(-c3ccccc3)nc3ccccc3c2=O)cc1 (stereo not drawn) | > 100 µM | –
O=c1c2ccccc2nc(-c2ccccc2Cl)n1NC1OC(CO)C(O)C(O)C1O (stereo not drawn) | > 100 µM | –
C/C(=C1/N=C(c2ccccc2)OC1=O)c1cccs1 | > 100 µM | –
C=C(Cl)C(Cl)(CBr)CCC(Cl)C(C)C (stereo not drawn) | 15.2 µM | –
COC(=O)c1cc2c([nH]c3ccccc32)c(-c2nc3cc(N(S(=O)(=O)c4ccc(C)cc4)S(=O)(=O)c4ccc(C)cc4)c(OC)cc3cc2CO)n1 | > 100 µM | > 100 µM
COc1cc(C2c3cc4c(c(O)c3C(=O)C3CCC(=O)N32)OCO4)cc(OC)c1OC (stereo not drawn) | > 100 µM | –
CN(C)/C=C/c1ccnc2c1C(=O)c1ccccc1C2=O | 29.1 µM | –
Cn1c([N+](=O)[O-])cnc1/C=C1\Oc2ccc(Cl)cc2C1=O | 11.4 µM | 2.99 µM
O=C(CN1C(=O)c2ccccc2C1=O)NC1(C(=O)O)CCCC1 | > 100 µM | –
COc1ccc(C2CC(c3cccc(Nc4ccnc5cc(Cl)ccc45)c3)=NN2c2ccc(Cl)cc2)cc1 (stereo not drawn) | > 100 µM | 15.2 µM
CNCc1ccc(C)c(NC(=O)c2ccc(Nc3nc(-c4ccccc4)c4ccccc4n3)cc2)c1 | 3.78 µM | 1.9 µM
CC(C)Oc1c(O)c2c3c(oc(=O)n3C=CC2c2ccccc2F)c1OC(C)C (stereo not drawn) | > 100 µM | –
S=C(N/N=C/c1ccccc1)NC1CC(c2ccccc2)Oc2ccccc21 (stereo not drawn) | > 100 µM | –
Cc1cccc(NC(=O)c2sc3nc4c(cc3c2N)CCC4)c1C | 48.3 µM | 0.714 µM
C[N+]12C=CC=C1C(N1CCCC1)c1sc(-c3ccc(Cl)cc3)cc12 (stereo not drawn) | > 100 µM | –
CCOC(=O)C(Cc1ccc(N(CCCl)CCCl)cc1)NC(=O)C(CC(C)C)NC(C)=O (stereo not drawn) | 31.2 µM | 13.1 µM
N#Cc1c(C#N)c(-c2ccco2)n(/N=C/c2ccco2)c1N | > 100 µM | –
c1ccc(C2(c3cc4ccccc4[nH]3)OCCO2)cc1 | > 100 µM | –
Cc1cc(N2CCOCC2)nc(N(CCNc2ccnc3cc(Cl)ccc23)Cc2cccs2)n1 | 11.1 µM | 3.04 µM
COc1nc(NC2OCC(OC(C)=O)C(OC(C)=O)C2OC(C)=O)c(N=C(C)C(C)=O)c(=O)n1C (stereo not drawn) | > 100 µM | –
Cc1[nH]c(=O)nc2c1C(=O)N(C(C)C)C(NC(C)C)S2 (stereo not drawn) | > 100 µM | –

Compound | TGI | GI50
CC/C(=C(\c1ccccc1)c1ccc(OCC[N+](C)(C)C)cc1)c1ccccc1 | 32.5 µM | –
COc1cc2c(c(OC)c1OC)-c1c(c3ccc([N+](=O)[O-])cc3c(=O)n1CCCN=[N+]=[N-])C2=O | 81.6 µM | 25.2 µM
COc1cccc2c(NNc3ccc(Cl)cc3)c3ccc([N+](=O)[O-])cc3nc12 | 50.8 µM | –
COc1ccc(C2CC(c3ccc(OC)c(OC)c3)=NN2C(=O)c2cc(OC)c(OC)c(OC)c2)cc1 (stereo not drawn) | > 100 µM | > 21.5 µM
CCOc1c(OC)cc(CNNc2nccs2)cc1OC | > 100 µM | –
CCCCCCn1c(=N)n(CC(O)COc2cccc(C)c2)c2ccccc21 (stereo not drawn) | 15.4 µM | 4.42 µM
N#Cc1ccccc1C#C/C=C\C#Cc1cnccn1 | > 90.9 µM | 36.9 µM
COC(=O)[C@H]1ON2O[C@H](OC3CCCC[C@@H]3c3ccccc3)C[C@@H]3CC[C@H]1[C@@]32C (stereo partly drawn) | > 100 µM | –
CCCC1C2=C(C(=O)OC2=O)C2C(CC)CC3=C(C(=O)OC3=O)C12 (stereo not drawn) | > 100 µM | –
CC(C)(C)C(=O)Cc1cc2c(cc1C(=O)O)S(=O)(=O)NC(C(C)(C)C)=C2 | > 100 µM | –
NCCN.O=N[O-].O=N[O-].O=N[O-].O=N[O-].[Co+3].[K+] | > 100 µM | > 100 µM
CC1CCCC2(O1)OC1CC(=O)OC1C1=C2C(=O)c2ccccc2C1=O (stereo not drawn) | 31.6 µM | –
CC(C)OP(=O)(OC(C)C)c1ncn(-c2ccc([N+](=O)[O-])cc2)n1 | > 100 µM | –
O=c1[nH]/c(=C/c2ccc(OCc3ccccc3)cn2)c(=O)[nH]/c1=C/c1cccnc1 | > 100 µM | –
CC(C)CCC[C@@H](C)[C@H]1CC[C@H]2[C@@H]3CC=C4CC(OCCCCN(O)CCCSC5OC(CO)C(O)C(O)C5O)CC[C@]4(C)[C@H]3CC[C@]12C (stereo partly drawn) | > 100 µM | –
CCC1(CC)C(=O)N(C(=O)c2ccc(Cl)cc2)N(C(=O)c2ccccc2Cl)C1=O | > 100 µM | –
COc1ccc(/C(C)=C(\c2ccc(Cl)cc2)c2ccc(OCCN3CCCCC3)cc2)cc1F | > 16.7 µM | 4.67 µM
COc1cc(C2C(C(=O)Nc3ccc(Cl)c(Cl)c3)=C(C)NC(C)=C2C(=O)Nc2ccc(Cl)c(Cl)c2)ccc1O | 36.6 µM | –
C[As](C)SCC(COC(=O)c1ccccc1)OC(=O)c1ccccc1 (stereo not drawn) | 5.12 µM | 0.847 µM
Cc1cn2cc(-c3ccncc3)nc2s1 | > 100 µM | –
Cc1ccc(-c2cn3c(nc4ccccc43)c(C)n2)cc1 | > 100 µM | –
Cc1ccc(SCN2CCCCC2)cc1 (tested in a mixture with another compound) | 76.1 µM | –
CC[N+]1(C)CCC(O)(/C=C/c2ccccc2)C(C(=O)/C=C/c2ccccc2)C1 (stereo not drawn) | 33.6 µM | –
COc1ccc(N=Nc2ccc3oc(=O)c(C(=O)Nc4ccc(OC)cc4)cc3c2)cc1 | 80.6 µM | –
COC(=O)C1CCC2(CC1)NC(=O)NC2=O (stereo not drawn) | > 100 µM | –

Compound | TGI | GI50
COC[C@@H](N=Cc1ccc(OC)cc1)C(C)C | > 100 µM | –
O=C1NC(N2CCCC(CO)C2)=N/C1=C\c1ccc(O)cc1 (stereo not drawn) | > 100 µM | –
COc1ccc(-c2nccn2-c2cc(OC)c(OC)c(OC)c2)cc1 | > 100 µM | 12.8 µM
C[N+](C)(C)CC(=O)N/N=C(\C(=O)Nc1ccc(Cl)cc1)C1C(=O)N(c2ccccc2)N=C1N (stereo not drawn) | > 100 µM | –
O=C(/C=C/CN1CCCCC1)Nc1cc2c(Nc3ccc(F)c(Cl)c3F)ncnc2cc1OCCOC(F)F | 1.56 µM | < 0.01 µM
CC(=O)NC(Cc1ccccc1)C(=S)N1CCCC1 (stereo not drawn) | > 100 µM | –
N#Cc1ccc(NC(=NCC(=O)O)Nc2ccc3ccccc3c2)cc1 | > 10 µM | –
COc1ccccc1C1C(Cl)C(=O)N1NC(=O)Cc1ccccc1 (stereo not drawn) | > 100 µM | –
CC(=O)/C=C\C(=O)NNS(=O)(=O)c1ccc(C)cc1 | > 100 µM | –
CC(=O)OC1C(OC/C2=C/C3[C@@H](C(C)C)CC=C(C)[C@@H]3CC(OC(=O)/C=C/c3cn(C)cn3)[C@]3(C)C=C[C@@]2(O)O3)OCC(O)C1O (stereo partly drawn) | > 34.8 µM | 0.0177 µM
Cc1ccc(S(=O)(=O)NC(CCCCN)C(=O)CCl)cc1 (stereo not drawn) | > 100 µM | > 100 µM
CCCCCCCCCCCCCCCCCc1nc(C#N)c(N)o1 | > 100 µM | –
COC(=O)C(I(OS(=O)(=O)c1ccc(C)cc1)c1ccccc1)=P(c1ccccc1)(c1ccccc1)c1ccccc1 | 87.1 µM | –
O=C1c2ccccc2CC1C1(O)C(=O)Nc2c(Cl)cc(Cl)cc21 (stereo not drawn) | > 100 µM | –
O=C(O)CCCCCNC(=O)CCC(CN(CC(=O)OCc1ccccc1)CC(=O)OCc1ccccc1)N(CC(=O)OCc1ccccc1)CC(=O)OCc1ccccc1 (stereo not drawn) | 29.7 µM | –
C[CH2][Ge]1([CH2]C)[CH2]CC2(CCN(CCCN(C)C)C2)C[CH2]1 | 4.37 µM and 4.16 µM | 2.04 µM and 1.91 µM
CCOC(=O)C1C(=O)C=C(c2cc(C)ccc2O)CC1c1cccc(Br)c1 (stereo not drawn) | 71.5 µM | –
Cn1cnc2nc(Cl)nc(Cl)c21 | 47.1 µM | 9.25 µM
CC1=CC(=O)C[C@]2(C)[C@@H](O)CC(C(C)CO)C[C@@H]12 (stereo partly drawn) | > 100 µM | –
Cc1ccc(-n2cc(-c3ccc(Cl)cc3)c3c(NNC(=S)NCc4ccccc4)ncnc32)cc1 | > 100 µM | –
Nc1n[nH]c(=O)c2c1c(Br)cn2C1OC(CO)C(O)C1O (stereo not drawn) | > 100 µM | –
CC(=O)OC12CCCCC1C1(CCCC1)NC2=O (stereo not drawn) | > 100 µM | –
